This is an account of results in PubChem BioAssay AID493208 (National Center for Advancing Translational Sciences (NCATS), 2011).

Molecules are shown by their SMILES. In all, about 44,000 compounds went through this assay and about 340 (0.77%) were called active. Another 5% or so got no clear call; they are omitted. Calls follow the shape of the dose curve; as a rule, active = well fitted inhibition curve with a large enough effect; inconclusive = small, poorly fitted or top-dose-only effect; inactive = flat fitted curve, though single readings scatter. Some of the results follow.
Potency is read from the fitted curve at half-maximal effect.

A short description of this test: Acumen qHTS Assay for Inhibitors of the mTORC1 Signaling Pathway in MEF (Tsc2-/-, p53-/-) Cells: Sytravon. Also: nearly all actives have a fitted effect of over 50% in size.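 As to activity change, negative = inhibition: plate controls were DMSO for no effect and rapamycin for full effect.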 The note with it: phospho-rpS6 immunofluorescence/PI, 24 h; series mostly up to 38.3 µM; activity change, negative = inhibition: at the top concentration. Put shortly: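 Read-out: phospho-S6 Alexa-488 intensity over PI intensity per well, scored as % active cells using thresholds from rapamycin (7.5 nM) and DMSO controls. Tsc2-/-, p53-/- MEFs exposed to compound for 24 h; PI cell count recorded as viability.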
A general note: qHTS replaces the single test concentration by a dilution series.
As to `CCCCN(C)C(=O)c1ccc2c(c1)NC(=O)C(CC(C)C)N2` (stereo not drawn), the “activity change, negative = inhibition” value is inactive: 11.1%.

As to `COc1ccc(OC)c(NC(=O)N2CCC3(CC2)Oc2ccccc2C(=O)N3Cc2ccccc2F)c1`, the “activity change, negative = inhibition” value was inactive: -13.7%.

In the case of `CCN1C(=O)C2(c3ccccc31)c1c(oc3ccccc3c1=O)C(=O)N2CCOC` (stereo not drawn), the “activity change, negative = inhibition” value is inactive: -7.81%.

Consider `Cc1ccc(NC(=O)c2nc(S(C)(=O)=O)ncc2N(Cc2ccco2)Cc2ccco2)cc1`, for which the “activity change, negative = inhibition” value is inactive: 1.98%.

With `CN(Cc1ccccc1)c1nc2c(S(=O)(=O)c3ccccc3)nnn2c2ccsc12`, the “activity change, negative = inhibition” value was inactive: 4.8%.

On to `Cc1ccc(S(=O)(=O)c2nnn3c2nc(NC2CCCCC2)c2sccc23)cc1C`, for which the Potency is active: 7.36 µM.

Regarding `Cc1ccc(OCCSc2nc3ccccc3n2CCC(=O)O)cc1`, the “activity change, negative = inhibition” value was inactive: -0.313%.

`Cc1cc(C)cc(OCC(=O)N(Cc2ccco2)Cc2ccccc2Cl)c1`: the “activity change, negative = inhibition” value was inactive: -27.3%.

Consider `Cc1c(C(=O)Nc2ccccc2F)sc2nc3n(c(=O)c12)CCC3`, for which the “activity change, negative = inhibition” value is inactive: 7.79%.

`Cc1ccc(NC(=O)Cn2c(=O)n(CC(=O)NCCc3ccccc3)c(=O)c3ccccc32)cc1`: the “activity change, negative = inhibition” value is inactive: 4.74%.

On to `CC1CCc2nc3ncn(Cc4cccc(F)c4)c(=O)c3cc2C1` (stereo not drawn), for which the “activity change, negative = inhibition” value was inactive: 3.73%.

As for `COc1ccc(C)cc1-n1c(SCC(=O)NCc2ccco2)nc2c([nH]c3ccccc32)c1=O`, the “activity change, negative = inhibition” value was inactive: -9.51%.

For `COc1ccc(CNC(=O)CCc2c(C)nc3c4cccnc4nn3c2C)cc1`, the “activity change, negative = inhibition” value was inactive: 13.9%.

Regarding `COc1ccc(CC(=O)Nc2nnc3n2CCS3)cc1OC`, the “activity change, negative = inhibition” value was inactive: -0.0554%.

For `CCc1ccccc1NC(=O)Cn1nnc(C(=O)NCc2cccc(OC)c2)c1N`, the “activity change, negative = inhibition” value was inactive: -1.09%.

Turning to `CCCCN(CC)CCCNC(=O)c1nn(-c2ccc(OC)cc2)c(=O)c2c1c1ccccc1n2C`, the “activity change, negative = inhibition” value was inactive: -1.13%.

In the case of `CNC(=O)C1CCC(Cn2c(=O)c3sccc3n(CC(=O)Nc3ccccc3)c2=O)CC1` (stereo not drawn), the “activity change, negative = inhibition” value is inactive: -5.14%.

In the case of `O=C(Nc1ncc(Cc2ccccc2Cl)s1)c1ccc2c(c1)CC(c1ccccc1)OC2=O` (stereo not drawn), the “activity change, negative = inhibition” value was inactive: 2.55%.

Turning to `Cc1ccc(CCNC(=O)CCCn2c(=O)c3cccn3c3ccc(F)cc32)cc1`, the “activity change, negative = inhibition” value was inactive: 4.81%.

In the case of `CCCCN(CC)CCCNC(=O)c1sc2nc3n(c(=O)c2c1C)CCCCC3`, the “activity change, negative = inhibition” value is inactive: 6.69%.

`O=C(CN1C(=O)COc2ccc(Cl)cc21)Nc1cccc(C(=O)O)c1`: the “activity change, negative = inhibition” value was inactive: -0.755%.

As to `COCCNC(=O)c1cc(-c2cccc(Cl)c2)on1`, the “activity change, negative = inhibition” value was inactive: -4.89%.

With `COc1cc2[nH]c(=O)n(CCCC(=O)N(C)Cc3ccccc3)c(=O)c2cc1OC`, the “activity change, negative = inhibition” value was inactive: -11.7%.

Regarding `CCOC(=O)c1ccc(N2C(=O)c3n[nH]c(C)c3C2c2ccc(CC)cc2)cc1` (stereo not drawn), the “activity change, negative = inhibition” value is inactive: 6.89%.

Turning to `CCc1ccccc1NC(=O)Cn1nc(C)c2nn(-c3ccc(Cl)cc3)c(C)c2c1=O`, the “activity change, negative = inhibition” value was inactive: -20.6%.

For the compound `CCc1ccc(S(=O)(=O)c2cn(C)c3ccc(C)cc3c2=O)cc1`, the “activity change, negative = inhibition” value was inactive: -7.92%.

Regarding `Cc1ccc(NC(=O)Cn2cc(S(=O)(=O)Cc3ccccc3)c3ccccc32)cc1C`, the “activity change, negative = inhibition” value is inactive: -13.7%.

In the case of `COC(=O)c1cc2occc2n1Cc1nc(-c2ccc(Cl)cc2)oc1C`, the “activity change, negative = inhibition” value was inactive: -4.37%.

Turning to `Cc1ccc(-n2nc(C(=O)N(C)c3ccccc3Cl)c3c4ccccc4n(C)c3c2=O)cc1`, the “activity change, negative = inhibition” value is inactive: 0.0235%.

`CN(C)S(=O)(=O)N(CC(=O)NCCSCc1ccc(Cl)cc1Cl)c1ccccc1`: the “activity change, negative = inhibition” value was inactive: 0.355%.

On to `CCOC(=O)C(Cc1ccccc1)NC(=O)Cn1nnc(-c2ccc(C)cc2)n1` (stereo not drawn), for which the “activity change, negative = inhibition” value was inactive: -10.5%.

In the case of `CSc1ccc(CCNC(=O)C2CCCN(S(=O)(=O)N(C)c3ccc(F)cc3)C2)cc1` (stereo not drawn), the “activity change, negative = inhibition” value was inactive: -22.4%.

For `COc1ccc(NC(=O)CN2C(=O)C(c3ccccc3)=NC23CCC(C)CC3)cc1Cl` (stereo not drawn), the “activity change, negative = inhibition” value was inactive: -6.64%.

As to `Cc1cccn2c(=O)cc(COc3cccc(NC(=O)Nc4cccc(Cl)c4)c3)nc12`, the “activity change, negative = inhibition” value was inactive: -9.72%.

Consider `COc1ccc(-n2ccnc(NCCc3ccc(S(N)(=O)=O)cc3)c2=O)cc1Cl`, for which the “activity change, negative = inhibition” value was inactive: 2.49%.

Consider `O=C1Cc2cc(S(=O)(=O)Nc3cccc(C(F)(F)F)c3)cc3c2N1CCC3`, for which the “activity change, negative = inhibition” value is inactive: -0.236%.

Take `COc1ccc(C(C)C)cc1S(=O)(=O)NCCc1c(C)[nH]c2c(Cl)cccc12`: the “activity change, negative = inhibition” value was inactive: -24%.

On to `C[C@H](NC(=O)OC(C)(C)C)c1nnc(SCc2ccc(Cl)cc2Cl)o1`, for which the “activity change, negative = inhibition” value was inactive: -8.91%.

On to `CC(C)c1ccc(NC(=O)[C@H]2O[C@@H]3OC(C)(C)O[C@@H]3[C@H]3OC(C)(C)O[C@H]32)cc1`, for which the “activity change, negative = inhibition” value was inactive: -6.52%.

On to `CCN(CC)c1ccc2nc3c(=O)n(C)c(=O)n(C)c3nc2c1`, for which the “activity change, negative = inhibition” value is inactive: -6.46%.

On to `Cc1nn(CC(=O)N2CCN(c3ccccc3F)CC2)c(=O)c2cccn12`, for which the “activity change, negative = inhibition” value was inactive: 0%.

With `Cc1cc(OC(C)C(=O)N(Cc2ccco2)Cc2ccco2)cc(C)c1Cl` (stereo not drawn), the “activity change, negative = inhibition” value is inactive: -3.19%.

Consider `CCn1nc(C)c(CCN(C)C(=O)Nc2cc(Cl)c(OC)cc2OC)c1C`, for which the “activity change, negative = inhibition” value is inactive: 0%.

Regarding `CCN(Cc1ccccc1)C(=O)Cn1c(=O)cc(C)c2c(C)nn(-c3cccc(F)c3)c21`, the “activity change, negative = inhibition” value is inactive: -20.3%.

Take `O=C(CSc1oc(-c2ccc(F)cc2)nc1S(=O)(=O)c1ccccc1)c1ccc(Cl)cc1`: the “activity change, negative = inhibition” value was inactive: -19.9%.

In the case of `CC(C)c1nn2c(=O)cc(COC(=O)c3cccc(NC(=O)CCc4ccccc4)c3)nc2s1`, the “activity change, negative = inhibition” value was inactive: 9.18%.

As for `CCOc1ccc(-c2nnc(SCC(=O)NC3CCCCC3)nc2-c2ccc(OCC)c(OC)c2)cc1OC`, the “activity change, negative = inhibition” value was inactive: -4.12%.

For the compound `CCc1ccc2occ(CC(=O)Nc3nnc(SC)s3)c2c1`, the “activity change, negative = inhibition” value is inactive: 1.57%.
